Test results published in publication PMC10836093, “Ensemble-based design of tau to inhibit aggregation while preserving biological activity” (Research Square, 2024).

What was measured:
[1] = molecular target: the molecule itself; experiment: ThT fluorescence aggregation assay; tauRD 5, 10, 20, 40 μM in 1X PBS, 10 mM DTT, induced with 2X heparin, 37 °C; self-assembly into fibrils, t1/2max from fitted curves; fibrils at endpoints seen by TEM
[2] = molecular target: the molecule itself; experiment: FRET or BRET; HEK293T cells stably expressing tauRD-mEOS3.2, seeded with sonicated heparin-induced 2N4R tau fibrils (lipofectamine), 48 h, photoconverted 20 min; FRET between green and red mEOS3.2 copies read by flow cytometry as percent FRET-positive cells
[3] = molecular target: tubulin dimer (UniProt P02550); experiment: cell-based or functional assay

B1: P301S Turn mutant tauRD (domain or fragment)
chain: not shown
notes: tau repeat domain, human MAPT, 4R tauRD […] on 2N4R tau, with P301S, V300Q and S305K; without tags; also called P301S tauRD Turn mutant; source: E. coli BL21-Gold (DE3), purified (boiling, HiTrap SP, Superdex 75)
t1/2max of ThT aggregation at 5 μM [1]: 97.7 ± 31.7 h
t1/2max of ThT aggregation at 40 μM [1]: 26.7 ± 2.9 h

B2: P301S Full mutant tauRD (domain or fragment)
chain: not shown
notes: tau repeat domain, human MAPT, 4R tauRD […] on 2N4R tau, with P301S, D295E, I297L, V300Q and S305K; without tags; source: E. coli BL21-Gold (DE3), purified (boiling, HiTrap SP, Superdex 75)
t1/2max of ThT aggregation at 40 μM [1]: 55.6 ± 24.5 h

B3: P301S Turn mutant tauRD-mEOS3.2 (domain or fragment)
chain: not shown
notes: not shown: mEOS3.2, C-terminal, kept
fold reduction of FRET-positive cells against P301S tauRD-mEOS3.2 [2]: ~2 fold

B4: P301S Full mutant tauRD-mEOS3.2 (domain or fragment)
chain: not shown
notes: as for B3
fold reduction of FRET-positive cells against P301S tauRD-mEOS3.2 [2]: 2 fold

B5: P301S tauRD (domain or fragment)
chain: not shown
notes: tau repeat domain, human MAPT, 4R tauRD […] on 2N4R tau, with the FTD-linked P301S mutation; without tags; source: E. coli BL21-Gold (DE3), purified (boiling, HiTrap SP, Superdex 75)
microtubule polymerization assay, polymerization amplitude (endpoint intensity), fold reduction relative to WT tauRD [3]: ~10 fold
t1/2max of ThT aggregation at 5 μM [1]: 52.4 ± 29.2 h
t1/2max of ThT aggregation at 40 μM [1]: 17.9 ± 5.4 h

B6: P301S_V300Q tauRD-mEOS3.2 (domain or fragment)
chain: not shown
notes: as for B3
fold reduction of FRET-positive cells against P301S tauRD-mEOS3.2 [2]: 1.2 fold

B7: P301S_S305K tauRD-mEOS3.2 (domain or fragment)
chain: not shown
notes: as for B3
fold reduction of FRET-positive cells against P301S tauRD-mEOS3.2 [2]: 1.2 fold
